# Measured values taken from PubChem BioAssay AID1476 (National Center for Advancing Translational Sciences (NCATS), 2009).
# About 4,500 (2.2%) of roughly 200,000 compounds were called active. The shares of active, inactive and inconclusive entries below differ from those in the screen. Calls come from the whole dose curve; as a rule, active = well fitted inhibition curve with a large enough effect; inconclusive = small, poorly fitted or top-dose-only effect, or effect the other way; inactive = flat fitted curve, though single readings scatter. A potency beside an inconclusive call is a rough fit, not a confirmed value. More than one record can exist for a structure, and the calls need not agree.
# Target: Cruzipain (Trypanosoma cruzi) (UniProt P25779)
# Sequence of UniProt P25779 (P25779 whole entry, looked up): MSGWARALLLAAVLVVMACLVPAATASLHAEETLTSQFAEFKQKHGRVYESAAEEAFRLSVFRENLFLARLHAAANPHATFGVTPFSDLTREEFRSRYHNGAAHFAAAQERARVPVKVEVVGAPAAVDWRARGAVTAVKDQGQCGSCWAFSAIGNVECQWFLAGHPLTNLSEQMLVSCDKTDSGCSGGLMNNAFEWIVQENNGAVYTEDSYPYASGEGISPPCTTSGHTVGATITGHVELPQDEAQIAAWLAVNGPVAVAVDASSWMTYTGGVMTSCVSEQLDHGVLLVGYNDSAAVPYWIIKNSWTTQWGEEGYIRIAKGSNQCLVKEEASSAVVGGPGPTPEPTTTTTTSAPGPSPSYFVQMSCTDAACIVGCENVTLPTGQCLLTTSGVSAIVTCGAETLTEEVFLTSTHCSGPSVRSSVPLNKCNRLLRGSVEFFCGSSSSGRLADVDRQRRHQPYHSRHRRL
# Assay: qHTS Assay for Promiscuous and Specific Inhibitors of Cruzain (without detergent); note: nearly all actives have a fitted effect of over 40% in size;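 for max response, negative = inhibition: plate controls were enzyme without inhibitor for no effect and buffer without enzyme for full effect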
# Settings: purified cruzain, Z-FR-AMC fluorescence, no detergent
# How it was run: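 Detergent-free condition (0.00005% Triton X-100) in acetate buffer pH 5.5 with DTT. 1.5 nM enzyme and compound were pre-mixed 15 min, then 2 uM Z-FR-AMC substrate added; reaction progress from fluorescence change between first and third reads (60 s).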
# Potency is the fitted concentration of half-maximal effect; tags give direction and shape of the fitted curve.
SMILES,Potency,"max response, negative = inhibition"
CCCCOc1ccc(NC(=O)Cn2nnnc2-c2ccccc2F)cc1,"inconclusive: 39.8 µM [inhibitor, single point]",–
CN(C)c1nc(Oc2ccc(C(=O)OCC(=O)Nc3ccccc3)cc2)nc(N(C)C)n1,"inconclusive: 39.8 µM [activator, single point]",–
COc1ccccc1NS(=O)(=O)c1cc([N+](=O)[O-])ccc1N/N=C/c1c(C)[nH]c2ccccc12,active: 7.94 µM,–
O=C1CC(N(CCc2ccccc2)C(=S)Nc2ccccc2)C(=O)N1c1ccc(Br)cc1 (stereo not drawn),"inconclusive: 39.8 µM [inhibitor, single point]",–
CCn1c(O)c(/C=C2\C=Nc3ccccc32)sc1=Nc1ccc(C)cc1,active: 15.8 µM,–
COc1cccc(CNC(=O)CN2C(=O)CSc3c2c(C)nn3-c2ccccc2)c1,–,inactive: -7.28%
CCOc1ccc(N2C(=O)N(Cc3c(F)cccc3Cl)c3ccccc3S2(=O)=O)cc1,"inconclusive: 39.8 µM [inhibitor, single point]",–
CS(=O)(=O)N1CCN(C(=O)c2cc(-c3ccncc3)nc3ccc(Cl)cc23)CC1,"inconclusive: 31.6 µM [activator, single point]",–
CC(=O)c1cccc(N=C2C(=O)Nc3ccccc32)c1,–,inactive: -0.964%
CN1C(=O)NC(=O)[C@]2(Cc3ccccc3N3CCN(c4ccccc4)CC32)C1=O (stereo partly drawn),"inconclusive: 39.8 µM [activator, single point]",–
COc1ccc(S(=O)(=O)c2c(Nc3ccc(C)cc3)sc(C(=O)c3ccc4c(c3)OCO4)c2N)cc1,active: 3.16 µM,–
Cc1cnc2c(c1SCC(=O)Nc1ccc(F)cc1F)c(=O)n(C)c(=O)n2C,–,inactive: 14.2%
CCOc1ccc2nc(N3CCCC(C(=O)Nc4cccc(Cl)c4C)C3)sc2c1 (stereo not drawn),–,inactive: 3.38%
Cc1ccc(SCc2nnc(NC(=O)c3ccccc3)s2)cc1,active: 10 µM,–
O=C(Cc1ccc(NC(=O)N2CCCCc3ccccc32)cc1)NCc1ccccc1,–,inactive: -7.62%
CCN(CC)S(=O)(=O)c1ccc2c(c1)N(CC(=O)Nc1ccc(C)cc1C)C(=O)C1CCCN21 (stereo not drawn),"inconclusive: 3.16 µM [inhibitor, full curve]",–
COc1ccc(C2=CC(c3cccc(C)c3)n3nnnc3N2)cc1 (stereo not drawn),–,inactive: 0.699%
COC(=O)c1c(NC(=O)c2ccc(C)c(S(=O)(=O)Nc3ccccc3C)c2)sc2c1CCCC2,active: 7.94 µM,–
CC(C)(C)c1ccc(-c2cc(C(=O)NNC(=O)Nc3ccccc3)c3ccccc3n2)cc1,"inconclusive: 39.8 µM [inhibitor, single point]",–
CC(=O)c1ccc(NC(=O)C(C)OC(=O)c2ccc(NS(=O)(=O)c3ccc(F)c(F)c3)cc2)cc1 (stereo not drawn),active: 15.8 µM,–
COc1ccc(N=C2S/C(=C\c3ccco3)C(=O)N2CC(C)C)cc1,–,inactive: -2.92%

SMILES,Potency,"max response, negative = inhibition"
Cc1ccc(/C=C/C(=O)Nc2sc3c(c2C#N)CCCC3)o1,active: 7.94 µM,–
Cc1ccc2[nH]c(=O)c3cc(C(=O)N(C)Cc4ccco4)sc3c2c1,"inconclusive: 39.8 µM [activator, single point]",–
Cc1nn(Cc2ccccc2Cl)c(Cl)c1/C=C/C(=O)OCC(=O)NC(N)=O,"inconclusive: 39.8 µM [inhibitor, single point]",–
Cc1cccc(N2CCN(CCCNC(=O)c3nnc(Cc4c(F)cccc4Cl)o3)CC2C)c1 (stereo not drawn),–,inactive: -4.88%
COc1ccc(C2=C(C)C(=O)N(Cc3ccc(C(=O)Nc4cc(C)ccc4C)cc3)S2(=O)=O)cc1,"inconclusive: 31.6 µM [inhibitor, single point]",–
O=c1[nH]c2cc(Cl)ccc2c(O)c1-c1ccc(Oc2ccccc2)cc1,active: 10 µM,–
Cc1cc(C(=O)OCC(=O)Nc2ccc(F)cc2[N+](=O)[O-])c2ccccc2n1,active: 20 µM,–
COc1ccc(OC)c(C(=O)CN2CCN(S(=O)(=O)c3ccc(Br)cc3)CC2)c1,active: 25.1 µM,–
O=C(NC(Cc1ccccc1)C(=O)OCC(=O)N1CCc2ccccc21)c1ccco1 (stereo not drawn),"inconclusive: 39.8 µM [inhibitor, single point]",–
Cc1ccccc1C(=O)N1CCc2cc(-c3nc(NC(=O)Cc4ccc5c(c4)OCO5)sc3C)ccc21,active: 3.16 µM,–
Cc1cc(C)cc(NC(=O)C2CCC(CNS(=O)(=O)c3ccc4c(c3)C(C)(C)C(=O)N4C)CC2)c1 (stereo not drawn),"inconclusive: 31.6 µM [activator, partial curve]",–
CCOC(=O)COc1ccc(Br)cc1/C=C\c1[nH]c(=O)[nH]c(=O)c1[N+](=O)[O-],"inconclusive: 39.8 µM [activator, single point]",–
Cc1cc2ccccc2n2c(SCC(=O)N3CCc4ccccc4C3)nnc12,"inconclusive: 39.8 µM [activator, single point]",–
O=C(CSc1cn(CCNC(=O)c2ccc3ccccc3c2)c2ccccc12)NCc1ccco1,"inconclusive: 25.1 µM [inhibitor, single point]",–
COc1ccccc1N1CCN(C[C@@H](C(=O)NC(C)(C)C)c2ccccc2)CC1,–,inactive: 5.36%
Cc1ccc(S(=O)(=O)Nc2nc3n(n2)C(c2ccccc2Cl)C=C(c2ccccc2)N3)cc1 (stereo not drawn),"inconclusive: 39.8 µM [activator, single point]",–
COc1ccc(-c2nc(Cn3c(SCc4ccccc4F)nc4ccncc43)c(C)o2)cc1OC,"inconclusive: 39.8 µM [activator, single point]",–
O=C(Nc1ccc(Cl)cc1)c1cc(S(=O)(=O)N2CCc3ccccc32)ccc1F,"inconclusive: 39.8 µM [inhibitor, single point]",–
COc1ccc(C2(CNC(=O)c3ccc(OCC(C)C)cc3)CCOCC2)cc1,"inconclusive: 39.8 µM [activator, single point]",–
CCC1=C2CC[C@H]3C(=O)NC(=O)[C@H]3[C@H]2[C@@]2(C)C(=NCC3CC3)OC(=O)N2C1=O,–,inactive: -6.42%
COc1cccc(CNC(=O)CN2C(=O)COc3ccc(S(=O)(=O)Nc4ccccc4)cc32)c1,–,inactive: -7.44%

SMILES,Potency,"max response, negative = inhibition"
CN(Cc1ccccc1)C(=O)C1CCN(S(=O)(=O)c2ccc3nc4c(c(C(=O)O)c3c2)CCCC4)CC1,"inconclusive: 31.6 µM [activator, single point]",–
O=C(COC(=O)C1CC(O)CN1S(=O)(=O)c1ccc(Cl)cc1)c1cccc(Cl)c1 (stereo not drawn),"inconclusive: 31.6 µM [activator, single point]",–
CC1OC(OC2C(O)CC(OC3C(O)CC(OC4CCC5(C)C(CCC6C5CCC5(C)C(C7=CC(=O)OC7)CCC65O)C4)OC3C)OC2C)CC(O)C1O (stereo not drawn),"inconclusive: 2.82 µM [activator, full curve]",–
O=C(Nc1nc2ccc(S(=O)(=O)N3CCCCC3)cc2s1)c1ccncc1,"inconclusive: 25.1 µM [activator, partial curve]",–
COc1ccc(Cn2c(C)c(C)c(C#N)c2NC(=O)Nc2cccc(C)c2)cc1,"inconclusive: 39.8 µM [inhibitor, single point]",–
O=C(/C=C/c1ccco1)Nc1ccc(N2CCCC2)cc1,"inconclusive: 31.6 µM [inhibitor, single point]",–
Cn1c(SCC(=O)c2ccc(F)cc2)nnc1-c1ccccc1Br,–,inactive: -9.31%
CCc1ccc(NC(=O)CSc2nc3ccccc3c(=O)n2CCN2CCOCC2)cc1,"inconclusive: 31.6 µM [activator, single point]",–
COc1ccc2cc(CN(CC3COCCO3)S(=O)(=O)c3c(C)cc(C)cc3C)c(=O)[nH]c2c1 (stereo not drawn),"inconclusive: 31.6 µM [activator, single point]",–
CN(Cc1ccccc1)S(=O)(=O)c1ccc2[nH]c3c(c2c1)CCCCC3,"inconclusive: 12.6 µM [inhibitor, partial curve, poor fit]",–
CCN1CCN(C(c2ccc(C)cc2)c2c(O)cc(C)n(Cc3ccco3)c2=O)CC1 (stereo not drawn),"inconclusive: 39.8 µM [inhibitor, single point]",–
Cc1ccc(N2CCN(C(=O)c3cnn(-c4ccc(F)cc4F)c3C3CCN(C(=O)OC(C)(C)C)CC3)CC2)c(C)c1,"inconclusive: 6.31 µM [activator, single point]",–
Cc1cc(C)n2nc(SCC(=O)N/N=C/c3cccc(Br)c3)nc2n1,"inconclusive: 39.8 µM [activator, single point]",–
CC(C)=CCc1c(O)cc(C)oc1=O,"inconclusive: 0.01 µM [activator, full curve, poor fit]",–
Nc1ccc(N=Nc2ccccc2)c(N)n1,active: 20 µM,–
COc1cc(OC)c(N(C)C(=O)c2cn(C3CCCC3)c(=O)c3c2c2ccccc2n3C)cc1Cl,"inconclusive: 39.8 µM [activator, single point]",–
COc1ccc(-c2nc(-c3ccc(Br)cc3)no2)c(OC)c1,"inconclusive: 20 µM [inhibitor, single point]",–
CCNc1ccc(C(=O)OCC)cc1NC(=O)c1cccc(S(=O)(=O)N2CCOCC2)c1,"inconclusive: 31.6 µM [activator, single point]",–
Cc1ccc2c(c1)C1CN(C)CCC1N2C(=O)Cn1cnc2c1c(=O)n(C)c(=O)n2C (stereo not drawn),"inconclusive: 0.0398 µM [inhibitor, full curve, poor fit]",–
O=C(Nc1cccc(C(F)(F)F)c1)N1CC2CCCN2c2ccccc21 (stereo not drawn),"inconclusive: 39.8 µM [inhibitor, single point]",–
COCCNC(=O)/C(C#N)=C1\N=C(N)c2ccccc21,"inconclusive: 0.1 µM [activator, single point]",–
